Structures can show the parent of a compound that is named as a salt. Where two headings read alike, the source gives them in different places.

In general, inhibition refers to the change of the read-out against control, counted positive when it falls.

Assay [1] has as its system fibrin-induced microglia activation. Briefly: Image-based assay of fibrin-induced microglia activation (HTS and dose response). In kind it is cell-based, rat. The note with it: for inhibition at 10 µM: Rattus norvegicus, Microglia, read-out: Fibrin % inhibition.
The test system of assay [2] is LPS-induced microglia activation. In words: Image-based assay of LPS-induced microglia activation (HTS and dose response). In kind it is cell-based, rat. Conditions: for inhibition at 10 µM: Rattus norvegicus, Microglia, read-out: LPS % inhibition.

As for `CC(C)OC(=O)C(C)(C)Oc1ccc(C(=O)c2ccc(Cl)cc2)cc1` [Fenofibrate], the inhibition at 10 µM in assay [1] was -37%; in assay [2], 0%.

For `CN1C2CCCC1CC(NC(=O)c1nn(C)c3ccccc13)C2` (centres unmarked) [Granisetron Hydrochloride], in assay [1], the Fibrin % inhibition is on record as −1%. For the same compound, the LPS % inhibition in assay [2] is 14%.

For `CN1C2CCCC1CC(NC(=O)c1nn(C)c3ccccc13)C2` (centres unmarked) [Granisetron], the Fibrin % inhibition in assay [1] was −38%. In assay [2], this compound returned an LPS % inhibition of 4%.

Turning to `CN1Cc2c(N)cccc2C(c2ccccc2)C1` (centres unmarked) [Nomifensine], the inhibition at 10 µM was -12% in assay [1] and 13% in assay [2] (48 h).

Take `COc1cccc(C2(O)CCCCC2CN(C)C)c1` (centres unmarked) [Tramadol Hydrochloride]: in assay [1] (10 µM), the Fibrin % inhibition was 35%. Besides, the LPS % inhibition in assay [2] (10 µM) amounted to 21%.

Turning to `COc1cccc(C2(O)CCCCC2CN(C)C)c1` (centres unmarked) [Tramadol], the inhibition at 10 µM came to 26% in assay [1] and 12% in assay [2].

For `O=C(CCCCCCC(=O)Nc1ccccc1)NO` [Vorinostat], the inhibition at 10 µM in assay [1] and in assay [2] was 112% in each case.

The record behind these values is US20210330611A1, “THERAPY FOR NEUROLOGICAL DISEASES/DISORDERS” (priority 2020, published 2021).
